In PubChem BioAssay AID686978 (National Center for Advancing Translational Sciences (NCATS), 2013):
The whole screen tested about 420,000 compounds, of which about 64,000 (15%) were called active. Inconclusive results, whose numbers are uncertain, are shown with a selection of clear calls. Calls come from the whole dose curve; as a rule, active = well fitted inhibition curve with a large enough effect; inconclusive = small, poorly fitted or top-dose-only effect; inactive = flat fitted curve, though single readings scatter. No potency is given beside an inconclusive call; the fits are too rough.

Assay: qHTS for Inhibitors of human tyrosyl-DNA phosphodiesterase 1 (TDP1): qHTS in cells in absence of CPT; note: nearly all actives have a fitted effect of over 55% in size
Details: DT40 Tdp1-/- hTDP1 cells, no CPT, ATP luminescence, 48 h; activity change, negative = growth inhibition: at 46.2 µM (top of the series) unless noted
Outline: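 DT40 Tdp1-/-;hTDP1 cells, no CPT (DMSO vehicle only), 400 cells/well; compounds pin-transferred; ≥48 hr, 37 °C; CellTiter-Glo 30 min RT dark, luminescence read.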
% is set by controls: 0 for no effect and ±100 for the full control effect; potency is the fitted concentration of half-maximal effect; tags give direction and shape of the fitted curve.

SMILES	Potency	activity change, negative = growth inhibition
COc1ccc(N2CSC3=C(C#N)C(c4ccc(OC)c(OC)c4)CC(=O)N3C2)c(OC)c1 (centres undefined)	inconclusive [inhibitor, single point]	
CCc1ccc(CNC(=O)CN2C(=O)C3CCCCN3c3ccc(C(=O)N4CCCC4)cc32)cc1 (centres undefined)	inconclusive [inhibitor, single point]	
COc1ccc(Cl)cc1NC(=O)CN(C)C(=O)c1cc2c(F)cccc2s1	active: 6.51 µM	
COc1ccc(N2CCN(C3CC(=O)N(Cc4ccc(N5CCCC5=O)cc4)C3=O)CC2)cc1 (centres undefined)	inconclusive [inhibitor, partial curve]	
CC1CCN(S(=O)(=O)c2ccc3c(c2)N(C)C(=O)CC(=O)N3C)CC1	inconclusive [inhibitor, partial curve]	
N#CCCCN1C(=O)C(O)(CC(=O)c2ccc3c(c2)OCCO3)c2ccccc21 (centres undefined)	inconclusive [inhibitor, single point]	
CCC(C)Sc1nc2c(c(=O)[nH]c(=O)n2C)n1Cc1ccc(Cl)cc1 (centres undefined)	inconclusive [inhibitor, single point]	
COc1ccc(OCc2nc3ccccc3n2Cc2ccc(C(C)(C)C)cc2)cc1	inconclusive [inhibitor, single point]	
CC(C)(C)c1csc(NNC(=O)c2ccc(Cl)cc2)n1	inconclusive [inhibitor, single point]	
Cc1cccc(C)c1OCC(=O)N1CCc2ccccc2C1	inconclusive [inhibitor, single point]	
Cn1nnc(NC(=S)NC(=O)/C=C/c2ccco2)n1		inactive: 2.9%
C[C@H]1CN([C@@H](C)CO)C(=O)c2cc(Br)cnc2O[C@H]1CN(C)Cc1ccccc1C(=O)O		inactive: 1.73%
CCN(CC(=O)Nc1ccc(NC(C)=O)cc1)CC(=O)Nc1cccc2ccccc12	inconclusive [inhibitor, single point]	
CCOc1ccccc1NC(=O)Cn1c(=O)nc(-c2ccccc2F)c2cc(Cl)ccc21	active: 20.6 µM	
COC(=O)/C=C/C(=O)Nc1cccnc1	inconclusive [inhibitor, partial curve]	
S=C(Nc1ccccc1)Nc1nc2ccccc2n1CCOc1ccccc1	active: 16.4 µM	
CCc1ccccc1NC(=O)Cn1c(=O)n(C(C)C)c(=O)c2oc3ccccc3c21	inconclusive [inhibitor, single point]	
CCC(C)c1ccc(Nc2ncccc2C#N)cc1 (centres undefined)		inactive: 0.334%
O=[N+]([O-])c1ccccc1/C=N/Nc1nnc(-c2ccccc2)c(-c2ccccc2)n1	active: 1.64 µM	
O=C(NCCCNC(=O)c1cnccn1)c1cccc(Cl)c1		inactive: 6.94%
CN1CCOc2cc(S(=O)(=O)N3CCN(c4nc(-c5cccs5)nc5ccccc45)CC3)ccc21	inconclusive [inhibitor, single point]	
COc1ccc(/C=C2\SC(=O)NC2=S)cc1OC	inconclusive [inhibitor, single point]	

SMILES	Potency	activity change, negative = growth inhibition
Cc1cccc(-n2c(C)cc(/C=N\NC(=O)c3cccs3)c2C)c1	active: 16.4 µM	
O=C(Nc1ccccc1)c1sccc1Oc1ccc([N+](=O)[O-])cc1F	active: 20.6 µM	
O=C(NC(=S)Nc1ccccc1N1CCCCC1)c1ccc(F)cc1Cl	inconclusive [inhibitor, single point]	
Cc1ccc(N2C(=O)c3ccccc3NC2c2ccccc2O)cc1 (centres undefined)	inconclusive [inhibitor, partial curve]	
CCN(CC)C(=O)Cn1c(SCC(=O)Nc2ccc(F)cc2)nc2ccccc21	inconclusive [inhibitor, single point]	
CCOc1ccc2nc(NC(=O)c3ccco3)sc2c1	inconclusive [inhibitor, single point]	
Cc1ccc(S(=O)(=O)Nc2ccc(Nc3ccccc3)cc2)cc1	inconclusive [inhibitor, single point]	
CCOCC(=O)Nc1nc2ccc(C)cc2s1	inconclusive [inhibitor, partial curve]	
Cc1cccn2c(=O)nc(SCC(=O)N3CCN(c4ccccc4)CC3)nc12		inactive: -18.1%
COc1ccc(-c2c(C)nc(N)nc2-c2ccc(OC)cc2O)cc1		inactive: -24.7%
CCOC(=O)c1c(C)nc2sc3c(c2c1-c1ccc(OC)cc1)NC(c1ccccc1)NC3=O (centres undefined)	active: 18.4 µM	
Cc1ccc(-c2csc(Cc3nc(-c4cc5ccccc5oc4=O)cs3)n2)cc1	active: 23.1 µM	
COC(=O)c1sccc1NC(=O)CC1C(=O)NCCN1C(=O)c1ccc(N(C)C)cc1 (centres undefined)		inactive: -10.6%
O=C(Cc1ccc(-c2ccccc2)cc1)NCCS(=O)(=O)N1CCN(c2ccccc2F)CC1	active: 14.6 µM	
COC(=O)CN1C(=O)CSc2ccc(S(=O)(=O)Nc3ccc(C)c(Cl)c3)cc21	inconclusive [inhibitor, single point]	
CCOC(=O)c1c(-c2ccc(OC)cc2)csc1NC(=O)CSc1ccccc1	inconclusive [inhibitor, single point]	
CCC1=C(C)CN(C(=O)NCCc2ccc(S(=O)(=O)NC(=O)NC3CCC(C)CC3)cc2)C1=O (centres undefined)	inconclusive [inhibitor, full curve, poor fit]	
Cc1ccsc1C1CC(=O)Nc2ccccc2S1 (centres undefined)	inconclusive [inhibitor, single point]	
O=C(Nc1nc2c(F)cc(F)cc2s1)C1CC1		inconclusive: -34.6% [inhibitor]
CC[C@H](C)[C@@H](C(=O)NCCCCCCCCCCC(=O)N1CCNCC1)n1cc(CCCCCN)nn1	inconclusive [inhibitor, single point]	
COc1ccc(OCC(=O)NNC(=S)NC(=O)c2ccc(Br)o2)cc1	inconclusive [inhibitor, single point]	
CCOc1ccc2nc(NC3=NC(C)(C)C=C(C)N3)nc(C)c2c1	inconclusive [inhibitor, single point]	
